Laboratory results from the CheMixHub viscosity set.
This continues a long series; more values of the same kind are listed elsewhere.

Experiment: xn = mol fraction of the nth substance listed

O=C1O[C@H]([C@@H](O)CO)C(O)=C1O + O
viscosity [mPa·s]
Conditions	293.15 K	298.15 K	303.15 K	308.15 K	313.15 K	318.15 K
100 kPa, x1 = 0.0001803	–	0.9002	0.8061	0.7269	0.6595	0.6016
100 kPa, x1 = 0.000376	1.008	0.898	0.804	0.725	0.66	0.607
100 kPa, x1 = 0.0005398	–	0.9089	0.8131	–	0.6642	0.606
100 kPa, x1 = 0.000729	1.013	0.903	0.809	0.73	0.665	0.612
100 kPa, x1 = 0.0008994	–	0.9167	0.8202	0.7387	0.6692	0.6107
100 kPa, x1 = 0.00109	1.017	0.908	0.814	0.735	0.67	0.617
100 kPa, x1 = 0.001258	–	0.9264	–	0.7467	–	0.617
100 kPa, x1 = 0.00146	1.023	0.914	0.819	0.74	0.674	0.621
100 kPa, x1 = 0.001797	–	0.9385	0.8386	0.7554	0.6851	–
100 kPa, x1 = 0.001827	1.028	0.919	0.825	0.745	0.679	0.626
100 kPa, x1 = 0.002191	1.035	0.924	0.831	0.75	0.684	0.632
100 kPa, x1 = 0.002694	–	0.9561	0.8555	0.7704	0.6979	0.6359
101 kPa, x1 = 0.00155	–	–	–	–	–	0.6163
101 kPa, x1 = 0.001856	–	–	–	–	–	0.621
101.3 kPa, x1 = 0.001875	–	0.951	0.827	0.778	0.676	–
101.3 kPa, x1 = 0.003776	1.078	0.978	0.857	0.805	0.698	–
101.3 kPa, x1 = 0.005404	1.124	–	0.889	0.832	0.723	–

CC(C)C[C@H](N)C(=O)O + O
viscosity [mPa·s], 100 kPa
Conditions	x1 = 0.000274	x1 = 0.000632	x1 = 0.000806	x1 = 0.000995	x1 = 0.00117	x1 = 0.00136	x1 = 0.00153	x1 = 0.00172
313.15 K	–	–	–	0.678	0.681	0.684	0.688	0.691
318.15 K	0.605	0.612	0.616	0.619	0.622	0.625	0.629	0.632

CNCCO + O
viscosity [mPa·s], 101 kPa
Conditions	318.15 K	323.15 K
x1 = 0.0844	–	1.428
x1 = 0.1894	–	3.056
x1 = 0.3001	–	4.842
x1 = 0.4014	–	5.965
x1 = 0.448	7.656	6.242
x1 = 0.5016	7.898	6.427
x1 = 0.5474	7.836	6.424
x1 = 0.6004	7.778	6.375
x1 = 0.7021	7.177	5.923
x1 = 0.7975	6.425	5.36
x1 = 0.9048	5.645	4.747
